# Test results reported in publication PMC4336329 (PLoS ONE, 2015).
# The whole screen tested about 310,000 compounds, of which about 14,000 (4.5%) showed an effect of 50% or more. Effects have a minus sign here. The list shows a part of the results.
# Target: human ether-à-go-go-related gene (hERG) potassium channel (human, UniProt Q12809)
# Assay: primary screen, population patch clamp on CHO cells stably expressing hERG
# 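Note: peak tail current of the secondary pulse compared with the same well before compound.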
# Sequence of human ether-à-go-go-related gene (hERG) potassium channel (Q12809 whole entry, looked up): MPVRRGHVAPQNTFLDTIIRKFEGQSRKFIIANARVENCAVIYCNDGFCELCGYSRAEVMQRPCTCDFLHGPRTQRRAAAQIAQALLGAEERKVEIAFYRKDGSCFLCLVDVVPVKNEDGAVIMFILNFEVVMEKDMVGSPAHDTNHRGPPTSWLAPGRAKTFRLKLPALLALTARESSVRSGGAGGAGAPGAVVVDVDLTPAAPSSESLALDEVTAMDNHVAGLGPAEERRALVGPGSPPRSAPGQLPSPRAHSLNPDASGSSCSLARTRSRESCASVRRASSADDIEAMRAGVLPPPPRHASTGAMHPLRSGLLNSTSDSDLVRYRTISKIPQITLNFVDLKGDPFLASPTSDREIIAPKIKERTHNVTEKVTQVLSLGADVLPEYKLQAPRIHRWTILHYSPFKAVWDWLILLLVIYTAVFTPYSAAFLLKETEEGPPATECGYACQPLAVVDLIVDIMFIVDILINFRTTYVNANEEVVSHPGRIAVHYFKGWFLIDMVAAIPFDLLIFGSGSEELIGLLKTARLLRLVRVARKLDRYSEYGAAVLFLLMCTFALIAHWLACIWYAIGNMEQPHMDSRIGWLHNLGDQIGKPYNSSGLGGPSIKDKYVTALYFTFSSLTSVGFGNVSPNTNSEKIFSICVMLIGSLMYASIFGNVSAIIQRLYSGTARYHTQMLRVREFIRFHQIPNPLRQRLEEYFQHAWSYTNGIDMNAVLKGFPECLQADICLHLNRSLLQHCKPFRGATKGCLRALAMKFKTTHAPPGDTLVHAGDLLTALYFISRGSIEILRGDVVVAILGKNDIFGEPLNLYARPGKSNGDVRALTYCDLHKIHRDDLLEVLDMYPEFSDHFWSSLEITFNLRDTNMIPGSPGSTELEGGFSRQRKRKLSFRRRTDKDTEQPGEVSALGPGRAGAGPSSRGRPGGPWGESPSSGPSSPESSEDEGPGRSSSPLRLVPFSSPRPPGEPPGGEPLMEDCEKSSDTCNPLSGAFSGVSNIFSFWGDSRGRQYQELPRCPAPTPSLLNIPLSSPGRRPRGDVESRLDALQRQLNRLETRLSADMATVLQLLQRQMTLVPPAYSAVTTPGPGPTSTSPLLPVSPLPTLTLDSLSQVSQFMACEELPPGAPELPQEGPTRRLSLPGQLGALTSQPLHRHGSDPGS
row,Structure (SMILES),"hERG current change (%, negative = inhibition) at 10uM"
1,C/C(=N\NC(=O)C(=O)Nc1cc(Cl)ccc1Cl)c1ccncc1,-4.88%
2,Cc1ccc(C)c(NC(=O)N2CCCCCC2)c1,5.79%
3,O=C(COC(=O)c1ccc(CO)cc1)NCc1cccs1,8.52%
4,C=CCn1c(SCC(=O)Nc2c(C)cccc2C)nnc1-c1cnccn1,-2.77%
5,Cc1cc(=O)oc(C)c1C(=O)n1nc(C)c2c1C[C@@H]1[C@H]2C1(C)C,0.302%
6,CCCCCN(C(=O)CCC(=O)OCC(=O)Nc1cccc(CC)c1)c1c(N)n(CCCC)c(=O)[nH]c1=O,7.86%
7,Cn1cc(C(=O)N2CCN(C(=O)c3ccco3)CC2)c2c3ccccc3n(C)c2c1=O,-22.8%
8,CCc1nn(CC(=O)N2CCC3(CC2)OCCO3)c(=O)c2cc3ccccc3n12,-8.07%
9,COc1ccccc1NC(=O)/C=C\c1ccco1,-0.482%
10,Cl.O=C(O)c1cccc(Nc2nc(-c3ccccc3)nc3ccccc23)c1,23.3%
11,CCOC(=O)N1CCC(N2C(=O)c3ccccc3C2Nc2ccc3c(c2)OCCO3)CC1 (stereo not shown),-7.43%
12,CC(=C\c1ccccc1)/C=C1/SC(=S)N(CCCC(=O)O)C1=O,42.6%
13,CCOC(=O)N1CCN(CC(=O)Nc2cc(OC)c(OC)cc2C#N)CC1,23.4%
14,CC1CCCN(C(=O)CSc2nc3ccccc3o2)C1 (stereo not shown),-11.7%
15,CC1CCCCN1S(=O)(=O)c1ccc(S(=O)(=O)N2CCN(c3ccc(F)cc3)CC2)cc1 (stereo not shown),-4.33%
16,COCC(C)NC(=O)c1cc2c(ccc3ccccc32)oc1=O (stereo not shown),22.8%
17,O=C(N/N=C/c1ccccc1Cl)c1ccc(F)cc1,15%
18,Cc1cc2ncc(-c3cccc(Cl)c3)cn2n1,8.42%
19,CC(Oc1ccccc1)C(=O)Nc1cccc(F)c1 (stereo not shown),12.5%
20,Cc1ccc(C(=O)NNC(=O)CSc2nnc(CNc3ccc(F)cc3)n2C)cc1,35.3%
21,NC(=O)c1cc2ccccc2o/c1=N\NC(=O)c1ccncc1,-17.1%
22,CCN(CC)c1ccc([N+](=O)[O-])cc1C(=O)O,21.3%
23,Cc1cc(Br)ccc1NC(=O)C1CSC2(C)CCC(=O)N12 (stereo not shown),-15.5%
24,CC1=C(C(=O)N(C)C)C(c2ccc(Cl)c(Cl)c2)NC(=O)N1 (stereo not shown),12.8%
25,O=S1(=O)N(Cc2ccccc2F)CCCN1Cc1c(F)cccc1Cl,7.29%
26,Cc1cccc(C(=O)Oc2ccc(/C=N/O)cc2)c1,-11.6%
27,O=C(CSC1=NS(=O)(=O)c2cc(F)ccc2N1)Nc1cccc(F)c1,-4.79%
28,O=C(CNC(c1ccccc1)c1ccccc1)Nc1c(F)cccc1F,-17.2%

row,Structure (SMILES),"hERG current change (%, negative = inhibition) at 10uM"
1,CN(Cc1c(C(=O)N/N=C/c2ccccc2F)nnn1-c1nonc1N)c1ccccc1,36.1%
2,COC(=O)C(C)Sc1n[nH]c(=S)s1 (stereo not shown),19.2%
3,Br.c1cn2cc(CN3CCOCC3)nc2s1,1.96%
4,COCCN1C(=O)/C(=C/c2c(OC)cc(OC)cc2OC)C(=O)N(c2ccccc2)C1=O,12.2%
5,O=C(O)c1cnn(-c2nc(-c3cccc([N+](=O)[O-])c3)cs2)c1C(F)(F)F,30.4%
6,COc1cc(/C=N/n2cc(-c3ccccc3)[nH]c2=S)cc(OC)c1O,-32.1%
7,Cc1ccc(OCCNC(=O)CCNS(=O)(=O)c2ccc(Br)cc2)cc1,15.7%
8,COC(=O)C1=C(c2ccc(F)cc2OCc2ccccc2)C[C@@H]2CC[C@H]1N2C(=O)NC1CC1,-10.4%
9,O=C1NN=C(c2ccccc2)CC1c1ccc(Cl)cc1Cl (stereo not shown),19.8%
10,O=[N+]([O-])c1ccc(-c2nc(C(Cl)Cl)c3ccccc3n2)cc1,5.99%
11,CC(=O)c1ccc(C(=O)N2CCCC(Nc3ccccc3)C2)s1 (stereo not shown),7.78%
12,CC(=O)Nc1ccc(S(=O)(=O)N/N=C/c2cccnc2)cc1,20.6%
13,CCn1nc([N+](=O)[O-])c(C(C#N)c2nc3cc(C(F)(F)F)ccc3s2)c(Cl)c1=O (stereo not shown),21%
14,CN(C)c1cc[n+](CC(=O)Nc2ccc([N+](=O)[O-])cc2Cl)cc1.[Cl-],4.85%
15,O=C(CCCCCn1c(=O)[nH]c2ccsc2c1=O)NCc1ccc2c(c1)OCO2,6.93%
16,CC(=O)NC(Cc1ccc(C)cc1)C(=O)NC1CCN(S(=O)(=O)c2ccccc2)CC1 (stereo not shown),-34.4%
17,Cn1c(=O)c2[nH]c(NCCCN3CCOCC3)nc2n(C)c1=O,-1.8%
18,CC(=O)N1CCc2cc(Br)cc(S(=O)(=O)NCC3CCCO3)c21 (stereo not shown),-3.74%
19,COc1ccc(-n2ncc3c2CC(C)(C)CC3NC(=O)CCN2CCCC2=O)cc1 (stereo not shown),-1.07%
20,CCOc1ccc(NS(=O)(=O)c2ccc3[nH]cc(C(=O)NC(C)CC)c(=O)c3c2)cc1 (stereo not shown),2.15%
21,O=C(O)C(Cc1ccccc1)NC(=O)C(Cc1ccccc1)NC(=O)C12CC3CC(CC(C3)C1)C2 (stereo not shown),12.8%
22,CNS(=O)(=O)c1cccc(C(=O)OCC(=O)N2c3ccccc3CC2C)c1 (stereo not shown),-27.9%
23,CC(C)(C)[C@@H]1C=C(C(=O)NCc2ccccc2)O[C@H](OCc2ccc(CO)cc2)C1,-28.4%
24,Cc1ccc(SC[C@H](Cc2ccccc2)N2CC[C@@H](C)CCC2=O)cc1,-28.7%
25,COc1ccc2oc(C(=O)OCC(=O)N3CCN(S(=O)(=O)c4ccccc4)CC3)c(C)c2c1,11%
26,c1ccc2[nH]c(-c3ccncc3)nc2c1,12.5%
27,O=C(COC(=O)c1ccccn1)NC1CCCCC1,2.2%
